Assay results as given in the supplement of paper PMC4166925.
± gives the standard deviation of the averaged measurements. In all, about 33,000 sequences were measured (“E-score (dimensionless, -0.5 to 0.5)”: median about -0.046, highest 2% from about 0.36 on). This is one part of the list.

Tested on: T1, SpTbr T-box DNA-binding domain (GST fusion)
T1 sequence: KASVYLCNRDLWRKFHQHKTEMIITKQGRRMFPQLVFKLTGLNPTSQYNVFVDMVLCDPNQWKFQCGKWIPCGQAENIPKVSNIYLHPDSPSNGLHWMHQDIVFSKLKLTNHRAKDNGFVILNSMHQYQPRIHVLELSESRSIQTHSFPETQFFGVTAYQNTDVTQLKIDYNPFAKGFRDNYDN
Experiment: PBM E-score of 8-mer (E-score (dimensionless, -0.5 to 0.5)); Tbr is Tbrain of the sea star Patiria miniata (Pm) or the sea urchin Strongylocentrotus purpuratus (Sp); higher = stronger binding preference; most listed sequences are background and not binding sites
Details: the construct has about 5 more residues each side
Method in brief: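 Each ungapped 8-mer received an enrichment E-score from the Universal PBM Analysis Suite, averaged over duplicate arrays. The proteins were Tbr T-box DNA-binding domains, covering the whole T-box plus about five flanking residues, fused to GST and expressed in BL21 E. coli at 20 °C before glutathione affinity purification. Universal Agilent oligonucleotide arrays were made double-stranded by primer extension and incubated with 200 nM protein in PBS (pH 7.5). The arrays were then scanned and quantified, and every 8-mer was scored from probe intensities.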

Point of comparison: ATCACACG, “PBM E-score of 8-mer” value 0.417 ± 0.027. Against it:
- CCATAACG — lower, -0.0454 ± 0.011
- GAGCCTGA — lower, -0.0563 ± 0.0068
- GGAAAATA — lower, -0.155 ± 0.034
- AACGTCTA — lower, -0.237 ± 0.092
- AGGCGATC — lower, -0.0489 ± 0.0021
- AAGATCCC — lower, 0.0611 ± 0.027
- ACCGCGAT — lower, 0.286 ± 0.0029
- CGTGGTGC — lower, 0.0202 ± 0.019
- ATTGGTGA — lower, 0.142 ± 0.059
- GGATGAGA — lower, -0.189 ± 0.0033
- GAGTTCAA — lower, -0.0639 ± 0.013
- CCACATGC — lower, -0.0984 ± 0.016
- ATTACACA — lower, 0.157 ± 0.036
- ACTTAGGG — lower, -0.0977 ± 0.044
- CGGTTTGC — lower, 0.0866 ± 0.036
- AAAGATTG — lower, -0.138 ± 0.1
- CTGAATCC — lower, -0.281 ± 0.056
- GGGCGGCA — lower, -0.0125 ± 0.018
- AGGAATCG — lower, -0.166 ± 0.059
- CCGAGCGG — lower, -0.317 ± 0.046
- AGCCTCAG — lower, -0.26 ± 0.0055
- GTCATTTA — lower, 0.00598 ± 0.011
- CATGGTGC — lower, 0.145 ± 0.014
- CACCGCGC — lower, 0.149 ± 0.075
- AAGTTTAG — lower, -0.126 ± 0.041
- AGGGTTTG — lower, -0.124 ± 0.1
- ATTCTGAA — lower, -0.26 ± 0.051
- CGGTTTGA — lower, -0.103 ± 0.098
- CAGGAGCA — lower, -0.0537 ± 0.046
- GCGGCCGA — lower, -0.0844 ± 0.089
- CATCGTCC — lower, -0.187 ± 0.054
- AAGACTGC — lower, -0.263 ± 0.072
- ACACAGCA — lower, 0.139 ± 0.047
- AGCGACTG — lower, -0.0432 ± 0.038
- TAAATAGA — lower, -0.135 ± 0.059
- AACAGACA — lower, 0.141 ± 0.048
- AGATGCAA — lower, -0.169 ± 0.014
- AACAGCAG — lower, -0.0147 ± 0.058
- CAATTCCG — lower, 0.0175 ± 0.024
- GACAGACC — lower, -0.0415 ± 0.052
- ATCACGAC — lower, 0.143 ± 0.0053
- CTGATCAG — lower, -0.0725 ± 0.036
- AACAATAG — lower, 0.135 ± 0.028
- GCACTTGA — lower, 0.139 ± 0.048
- CGTATCAA — lower, -0.181 ± 0.0039
- AGATTCTC — lower, 0.0437 ± 0.07
- ATGCGCTC — lower, -0.175 ± 0.02
- ACACCTTA — higher, 0.46892 ± 0.00038
- TGATTCCA — lower, -0.179 ± 0.0044
- ACATAAGA — lower, -0.0442 ± 0.051
- ATTGTCGA — lower, 0.0605 ± 0.042
- AATGCAGG — lower, -0.198 ± 0.014
- CACATGTC — lower, 0.22 ± 0.006
- AGTGCGCA — lower, 0.116 ± 0.024
- CAGGAGCC — lower, -0.179 ± 0.092
- ACTACGAT — lower, -0.1 ± 0.065
- ATGCGCCG — lower, -0.097 ± 0.046
- AGGTTGGC — lower, 0.208 ± 0.0032
- GTGGCACA — lower, 0.243 ± 0.021
- AGTGTACC — lower, -0.101 ± 0.0028
- CCGATGAA — lower, -0.0503 ± 0.074
- TAGCCCGA — lower, -0.2 ± 0.047
- GCCGGCGC — lower, 0.0705 ± 0.11
- CTGGTTCC — lower, -0.0214 ± 0.056
- CTTTTTTC — lower, -0.0265 ± 0.039
- AGAGTCCT — lower, -0.356 ± 0.0085
- GATCCTGC — lower, -0.119 ± 0.056
- CCCGAAGC — lower, -0.0491 ± 0.043
- TACTGCCA — lower, -0.141 ± 0.0086
- CACTTATG — lower, 0.252 ± 0.04
- GACCCAGA — lower, 0.00365 ± 0.028
- ATTAAAAC — lower, -0.0783 ± 0.021
- GCGCCAAC — lower, 0.29128 ± 2.8e-05
- CGCGGGAG — lower, 0.118 ± 0.032
- TCTTCTCA — lower, 0.24 ± 0.054
- ACCAGAGT — lower, 0.0612 ± 0.0065
- ACGTGTAT — lower, -0.0813 ± 0.062
- AACACTAG — lower, 0.222 ± 0.049
- ATACGGCA — lower, -0.155 ± 0.032
- CCGCGCTA — lower, 0.0742 ± 0.032
- ATCCTCTG — lower, -0.0353 ± 0.06
- AATTGCAT — lower, -0.192 ± 0.026
- CTAGATAA — lower, -0.00975 ± 0.025
- CGAAGTAA — lower, -0.0537 ± 0.025
- GCGATACA — lower, 0.0906 ± 0.064
